Data published in PubChem BioAssay AID1768 (National Center for Advancing Translational Sciences (NCATS), 2009).
Among all 270,000 compounds or so, about 620 (0.23%) were called active. Inconclusive results, whose numbers are uncertain, are shown with a selection of clear calls. Calls follow the shape of the dose curve; as a rule, active = well fitted inhibition curve with a large enough effect in the polarisation, with a control signal flat (not every such curve was filed as active); inconclusive = small, poorly fitted or top-dose-only effect, or effect the other way, or a change in a side signal; inactive = no such curve, though single readings can be large or run the other way; the % refers to the polarisation. Potencies beside an inconclusive call are fits to weak or partial responses and may not hold up. A note “side channel” means that the fit belongs to a control or component signal, not to the main read-out.
Potency is read from the fitted curve at half-maximal effect; tags tell the direction and shape of the fitted curve or compound fluorescence and quenching.

These molecules were tested against Menin (Homo sapiens) (UniProt O00255) (assay: qHTS Assay for Inhibitors Targeting the Menin-MLL Interaction in MLL Related Leukemias: Competition With Texas Red Labeled MLL-derived Mutant Peptide). Settings: fluorescence polarization; series mostly up to 61.6 µM.
Chain of UniProt O00255 (O00255 whole entry, looked up): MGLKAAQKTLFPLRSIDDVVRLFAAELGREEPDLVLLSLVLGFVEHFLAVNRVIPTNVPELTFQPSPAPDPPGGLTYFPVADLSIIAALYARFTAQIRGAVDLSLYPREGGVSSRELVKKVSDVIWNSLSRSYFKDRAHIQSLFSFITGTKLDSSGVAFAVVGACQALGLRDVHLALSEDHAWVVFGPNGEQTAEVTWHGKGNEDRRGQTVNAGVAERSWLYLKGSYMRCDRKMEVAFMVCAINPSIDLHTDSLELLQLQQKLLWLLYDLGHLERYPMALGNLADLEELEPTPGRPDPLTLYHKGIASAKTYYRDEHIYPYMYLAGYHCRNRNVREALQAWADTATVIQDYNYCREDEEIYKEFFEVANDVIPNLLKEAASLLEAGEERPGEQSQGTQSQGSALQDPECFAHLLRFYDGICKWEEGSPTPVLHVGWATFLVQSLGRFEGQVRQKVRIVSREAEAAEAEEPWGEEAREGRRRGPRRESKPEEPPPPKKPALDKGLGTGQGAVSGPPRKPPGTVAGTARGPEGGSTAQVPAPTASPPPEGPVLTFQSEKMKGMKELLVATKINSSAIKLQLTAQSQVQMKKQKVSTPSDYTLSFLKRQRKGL
CCCc1ccc(Oc2cc(C)nc(N3CCOCC3)n2)cc1 was tested, and the Potency was inconclusive: 3.16 µM [inhibitor, partial curve].
In the case of Cc1c(-c2ccccc2)n[nH]c1C(=O)N=Nc1c(O)[nH]c2ccccc12, the Potency is reported as inconclusive: 20 µM [quencher, side channel, partial curve].
For O=C(/C=C/c1ccccc1)NC(=S)Nc1ccccc1O, the Potency was inconclusive: 25.1 µM [inhibitor, single point].
In the case of CC[C@@H]1C(c2ccc(F)cc2)=NN(c2ccc(Br)cc2)[C@H]1C(=O)N1CCOC1=O, the Potency is reported as inconclusive: 5.62 µM [quencher, side channel, full curve, poor fit].
Cc1cc(O)c(NC(=S)NC(=O)c2ccc(-c3ccc(Cl)cc3)o2)cc1C was tested, and the Potency was inconclusive: 8.91 µM [quencher, side channel, partial curve].
For CC1CC(NNC(=O)c2ccccc2)=Nc2ccccc2N1C (centres undefined), the Potency was inconclusive: 7.08 µM [fluorescent, side channel, single point].
For CC1=CC(C)(C)Nc2ccc(OC(=O)CN3C(=O)c4cccc5cccc(c45)C3=O)cc21, the Potency was inconclusive: 25.1 µM [quencher, side channel, partial curve].
For N#Cc1ccc(-c2ccc(Cl)cc2)nc1Oc1ccc(F)cc1, the Potency was active: 20 µM.
In the case of O=C(CCN1C(=O)/C(=C/c2ccccc2Cl)SC1=S)Nc1ccccc1C(=O)O, the Potency is reported as inconclusive: 39.8 µM [quencher, single point].
COc1ccc(NC(=O)Nc2cccs2)cc1Cl was tested, and the Potency was inconclusive: 28.2 µM [quencher, side channel, partial curve].
For O=S(=O)(Nc1nc2ccccc2nc1Nc1cccc(S(=O)(=O)N2CCCCC2)c1)c1ccccc1, the Potency was inconclusive: 8.91 µM [quencher, side channel, partial curve].
In the case of Cc1ccc([N+](=O)[O-])cc1NC(=S)NC(=O)C(C)(C)C, the Potency is reported as inconclusive: 8.91 µM [inhibitor, partial curve].
With O=C(/C=C/c1ccc(Cl)c([N+](=O)[O-])c1)Nc1ccc(N2CCCC2)cc1 the Potency was inconclusive: 3.16 µM [quencher, side channel, full curve].
O=C(CN1C(=O)NC(Cc2c[nH]c3ccccc23)C1=O)Nc1cccc(S(=O)(=O)N2CCCCCC2)c1 (centres undefined) was tested, and the Potency was inconclusive: 8.91 µM [quencher, side channel, full curve, poor fit].
In the case of C#CCSc1nsc(SCC#C)c1C#N, the Potency is reported as inconclusive: 28.2 µM [quencher, side channel, single point].
CN=c1sc2ccccc2n1CC(O)COc1ccccc1 (centres undefined) was tested, and the Potency was inconclusive: 22.4 µM [fluorescent, side channel, single point].
For CCOc1ccccc1NC(=O)COc1ccc2ccc(=O)oc2c1, the Potency was inconclusive: 39.8 µM [inhibitor, single point].
In the case of C[C@@H](C(=O)Nc1ccc2c(c1)OCO2)n1c(=O)[nH]c2ccccc2c1=O, the Potency is reported as inconclusive: 14.1 µM [quencher, side channel, partial curve].
With C/C(=N\NC(=O)c1ccc(F)cc1)c1ccccn1 the Potency was “inactive”.
O=C1SC(SCc2ccccc2)=N/C1=C\c1ccco1 was tested, and the Potency was inconclusive: 31.6 µM [quencher, side channel, single point].
Cc1ccc(C23CC4CC(CC(C(=O)OCC(=O)N(C)C)(C4)C2)C3)cc1 was tested, and the Potency was inconclusive: 14.1 µM [fluorescent, side channel, partial curve].
In the case of COc1cccc(Nc2nc(-c3sc(C)nc3C)cs2)c1, the Potency is reported as inconclusive: 22.4 µM [quencher, side channel, partial curve].
With O=C1Nc2cc(Cl)c(Cl)cc2N(O)N1c1ccc(Cl)c(Cl)c1 the Potency was “inactive”.
COc1ccc(OC)c2c(N3CC(C)OC(C)C3)cc(C(F)(F)F)nc12 (centres undefined) was tested, and the Potency was inconclusive: 39.8 µM [inhibitor, single point].
Clc1ccc(CN2CCN(c3ncccn3)CC2)cc1 was tested, and the Potency was inconclusive: 15.8 µM [inhibitor, partial curve, poor fit].
In the case of Fc1ccc(CN2CCN3CCCC3C2C2CCCCC2)cc1F (centres undefined), the Potency is reported as inconclusive: 8.91 µM [inhibitor, single point].
In the case of CCOc1cccc2sc(Nc3nc4ccc(NC(C)=O)cc4s3)nc12, the Potency is reported as inconclusive: 3.16 µM [quencher, side channel, full curve].
For COc1ccc(C(=O)N/N=C/c2cc3ccccc3[nH]c2=S)cc1, the Potency was inconclusive: 28.2 µM [quencher, side channel, single point].
For CCOc1cc(/C=C2/C(=O)ON=C2C)ccc1OCc1ccccc1F, the Potency was inconclusive: 28.2 µM [quencher, side channel, single point].
For CCn1c(Cc2ccccc2)nnc1SCC(=O)Nc1nc2ccccc2s1, the Potency was inconclusive: 39.8 µM [inhibitor, single point].
For CCCC(=O)NC(c1ccccc1OC)c1ccc2cccnc2c1O (centres undefined), the Potency was “inactive”.
With NC[C@@H]1O[C@H](C23CC4CC(CC(C4)C2)C3)Cc2c1ccc(O)c2O the Potency was inconclusive: 11.2 µM [fluorescent, side channel, partial curve, poor fit].
Cc1cc(NC(=O)c2ccccc2)no1 was tested, and the Potency was inconclusive: 3.98 µM [inhibitor, full curve].
In the case of CCCOP(=O)(c1ccccc1)c1ccccc1, the Potency is reported as inconclusive: 39.8 µM [inhibitor, partial curve].
In the case of O=C(COC(=O)c1ccc(Cl)nc1)c1ccc2c(c1)OCCO2, the Potency is reported as “inactive”.
For CC(C)c1nnc(NC(=O)CSc2nnc(NC(=O)c3c(F)cccc3F)s2)s1, the Potency was inconclusive: 39.8 µM [fluorescent, side channel, single point].
In the case of CCOC(=O)C1C(c2ccccc2)NC(=S)NC1(C)O (centres undefined), the Potency is reported as “inactive”.
CC(=O)Nc1ccc(-c2csc(Nc3ccc(Cl)cn3)n2)cc1 was tested, and the Potency was inconclusive: 5.62 µM [quencher, side channel, partial curve].
In the case of Cc1ccc(C(=O)OCCN2CCN(c3ncc(C(F)(F)F)cc3Cl)CC2)cc1, the Potency is reported as inconclusive: 7.08 µM [fluorescent, side channel, full curve].
